The supplement of paper PMC11417369
± gives the standard deviation of the averaged measurements. Some of the results follow.

System: PfAP2-EXP AP2 domain (GST-tagged)
Assay: gcPBM binding intensity (ln(normalized median fluorescence intensity)); higher = stronger DNA binding
Procedure, shortened: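 Plasmodium falciparum DNA-binding domains carrying a GST tag were expressed in E. coli and applied for 1 h, at about 25 μg on average, to an Agilent 4 × 180k array. The array held primer-extended double-stranded 36-bp intergenic genomic probes together with negative controls, and binding took place in 1× PBS with 1% milk, 0.2 mg/ml BSA, 0.5% salmon testes DNA and 0.03% Triton X-100. An Alexa488 anti-GST antibody detected bound protein, and the array was scanned at 488 nm. Binding intensity is taken as the highest Masliner-normalised natural-log median intensity across replicate spots of either probe orientation.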

Sequence	gcPBM binding intensity (ln)
TACCAAAAAACGGCACGCATATGTATAAGAATATGT [XGTACX_negctrl_site470]	8.79 ± 0.67
AAATATATAAAAGTATGTACATATGAAAAATATATA [XGTACX_site6165]	8.94 ± 0.42
TTATAAAGAATTAGGAGTACAAATGCATATATAATA [XGTACX_site6580]	8.9 ± 0.42
TTATATAACATAACGATGTTTCAAAACATATTGTAT [CACACA_negctrl_site997]	8.44 ± 0.52
ATTTTTTTGTATATATATGACTGGGGATATAATCAA [GTGCAC_negctrl_site274]	8.77 ± 0.6
ATGAAAAAAAAAAAAAAAAAAAAAAAAAAAAAAATA [CACACA_negctrl_site1083]	7.89 ± 0.54
TATAAAAAAAAAAAAAAAAAAAAAAATATATATATA [CACACA_negctrl_site817]	9.74 ± 0.25
TATTATTTTTCATATGCATGCAAAAATAAAAAAATA [TGCATGCA_site350]	9.63 ± 0.35
AAAAAAAAAAAAAATTGTACTTAAATATATATATAT [XGTACX_site7604]	9.9 ± 0.45
AAATTAAAATAAAATAGTACATATATTTATATTTTT [XGTACX_site1687]	8.16 ± 0.14
ACATACATATATTTATGTACATATATATTTATGATT [XGTACX_site6485]	8.55 ± 0.33
AAAAAAAGATTATACACACACATATATAAACATACA [CACACA_site4553]	8.55 ± 0.61
AATTTATATTTATGTGCATGTAATAACTGTATATAA [TGCATGCA_site349]	8.75 ± 0.2
TTTTGGTGTATAGTATTAATATAAAATAATTATATT [CACACA_negctrl_site47]	8.45 ± 0.35
ATTTTTTTTTCTTGTACACACTATTTTATAATTTTA [CACACA_site6102]	9.16 ± 0.44
TAAACATTCTTATATAGTACCCATATTAAAATATAC [XGTACX_site8014]	8.38 ± 0.28
TTAGCTTATCATTACTGTACTTTATTCATATATATG [XGTACX_site8008]	8.91 ± 0.43
ATAAGCATACATATTACACACATATAATATATATAT [CACACA_site2487]	9.17 ± 0.085
TACATATATATATATGAACACACAAAAAGAATATTT [CACACA_site8421]	8.72 ± 0.68

Sequence	gcPBM binding intensity (ln)
TTTTATGAGAAACACACACACAAAAAAAAAAAAAAA [CACACA_site4129]	8.28 ± 0.58
AGTGGATAAATTTATTCACACATTTTTTTTTTTTTT [CACACA_site5914]	8.33 ± 0.24
TCTTACTAATTTATGGGGACTTATCACCTATTCAGT [CACACA_negctrl_site652]	8.6 ± 0.43
CATGAATCCTAATAATGTACATAAGAATTCATAATG [XGTACX_site1607]	8.41 ± 0.41
AACAAAGTCATACATACATACATATATATATATATA [GTGCAC_negctrl_site632]	10 ± 0.37
TCAATAATAAAAAACACACACAAAAAAAAATAATTA [CACACA_site2798]	8.43 ± 0.62
TATTGTATTTCATATTGTACTAAAAAAAAAAAAAAG [XGTACX_site6694]	8.31 ± 0.37
ATAATACATACATACATACACACATATATATATATT [CACACA_site3576]	8.79 ± 0.49
TATATTATTTATAGTAGTACATAAAATATAAATATT [XGTACX_site4417]	8.23 ± 0.36
AAAAAAAAAAAAAAAACACACATACACATATATTTT [CACACA_site7768]	8.62 ± 0.19
TAAAAAAAAAAAAAAACACACATATAAATATTTATA [CACACA_site6702]	8.2 ± 0.51
AGTAAAAAAAAAAAAAAAAAAAAAAAAAAAAAAAAA [GTGCAC_negctrl_site147]	8.09 ± 0.27
TATTAATATTTTTGTTGTACTTAAAAATGATGGTAG [XGTACX_site3501]	8.78 ± 0.16
CATATACACGAACACACACACATATAAATAAATATA [CACACA_site6379]	8.73 ± 0.46
TATTATTTTAATTATTCACACATTATTATAAAAATT [CACACA_site5538]	8.3 ± 0.33
GGAATATTAAAAAAATGTACAAAAAATAATATCCAT [XGTACX_site2596]	8.97 ± 0.36
TTACAATTTAATATATGTACATATTTGTGATTTATC [XGTACX_site2911]	8.48 ± 0.37
TATATATATTAAAAAGTGCATTATTCATATTATATA [GTGCAC_site9400]	8.52 ± 0.11
TATAATGTTAAATAATGTACATATATTTTTTTTTTT [XGTACX_site4722]	8.19 ± 0.41

Sequence	gcPBM binding intensity (ln)
AAAATATCTTGTTACTGTACAAATATAAATAAATAC [XGTACX_site3684]	8.62 ± 0.23
TTTATTAATAATTATACACACATATAAAATGAATAA [CACACA_site1359]	8.46 ± 0.47
AATAATAACATACAGACACACACGTAAAAGCACGTG [CACACA_site253]	8.71 ± 0.39
TTTATATATTAATATGCACACACAAGAAGTAATTAT [CACACA_site9045]	8.96 ± 0.35
ATATATACGTATGAATGTATATTTGTTTGAATTTTT [CACACA_negctrl_site524]	8.41 ± 0.86
AATGGGTAAACATACACACACACATATATATATATA [CACACA_site1991]	10.1 ± 0.33
TTTTTTTTTGAAAAAAGTACTTAATTTTTAAGAAGA [XGTACX_site3591]	8.07 ± 0.31
TCTAATAATAAATACACACACATATATATTTATATA [CACACA_site5169]	8.15 ± 0.32
GTCAACAAGAATTAAGTGCATAATTTTTTATTAAAT [GTGCAC_site9492]	8.47
AAATTTTATGTATAATGTACACATAAATTTTTCTTT [XGTACX_site7266]	8.32 ± 0.34
ATGTCAAGAACTGAACGTACAAACTTTGTAATATTG [XGTACX_site8754]	8.62 ± 0.45
AGTAATAATCGGCATGCATGTCAGTGGTAGTATATA [TGCATGCA_site312]	9.3 ± 0.53
ATACAGATAGGATGCACACATAATTCAAATACAATA [CACACA_site4531]	8.69 ± 0.45
ATATAATAATAATATTGTACAATAAAAAATATATAT [XGTACX_site7350]	8.81 ± 0.4
AAGGAATGCATATAGGTGCTACACATAAAAATAAAA	9.13 ± 0.69
TACTTTTTTCCTATTATGTTTCTTATTTTTATAAAT [XGTACX_negctrl_site561]	8.89 ± 0.6
TTAAGTAGTACATACACACACATATACAAAAAGAAA [CACACA_site3972]	9.06 ± 0.35
TCTTATATATTTATTTGTACATATATATATATATAT [XGTACX_site7214]	10.1 ± 0.33
